PubChem BioAssay AID1963576 (National Center for Advancing Translational Sciences (NCATS), 2024)
About 60 (0.1%) of roughly 46,000 compounds were called active. Not shown: some 3% with an inconclusive outcome. Calls come from the whole dose curve; as a rule, active = well fitted inhibition curve with a large enough effect; inconclusive = small, poorly fitted or top-dose-only effect; inactive = no such curve, though single readings can be large or run the other way. This is one part of the list.

assay: Primary qHTS assay for Inhibitors of ovarian cancer metastasis using an organotypic tumor microenvironment (TME) model.; note: nearly all actives have a fitted effect of over 65% in size;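 for activity change, negative = inhibition: plate controls were DMSO wells for no effect and tomatine positive control wells for full effect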; conditions: SKOV3ip1-GFP adhesion/invasion on 3D omental model, fluorescence; series mostly up to 45.8 µM; activity change, negative = inhibition: at the top concentration
In short: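 Primary human omental fibroblast/mesothelial 3D culture pre-formed 48 h. SKOV3ip1-GFP cells added with compounds (0.36-46 umol/L), incubated 2 h RT/16 h 37 C, fixed; GFP cells quantified at 488/509 nm.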

Activity change, negative = inhibition, inactive:
O=C(Cn1c(=O)oc2ccccc21)NCc1ccc(Cl)cc1 17.4%, CCOC(=O)c1c(Nc2ccccc2)nnc(-c2ccccc2)c1-c1ccccc1 -10.4%, CCN(CC)C(=O)Cn1c(SCC(=O)Nc2ccc(C)c(C)c2)nc2ccccc21 -2.1%, COc1ccc2oc(-c3ccc(C)c(NC(=O)c4ccc(N5CCCCC5)c([N+](=O)[O-])c4)c3)nc2c1 -9.54%, Cc1ccc(NC(=O)CN2C(=O)C(c3ccccc3)=NC2(C)C)cc1C -5.1%, COc1cccc(C(=O)Nc2ccc3c(c2)CCCN3C(=O)c2cccs2)c1OC 17.4%, Cc1ccccc1C(=O)Nc1ccccc1C(=O)OCc1cc(=O)n2nc(C3CC3)sc2n1 1.11%, CN1CCN(c2ncc3c(n2)CCN(Cc2ccccc2Cl)C3)CC1 4.87%, Cc1cc2oc(C(=O)N(Cc3ccccc3)C3CCS(=O)(=O)C3)cc(=O)c2cc1C (centres undefined) 0.424%, CCOc1ccc(Nc2c(S(=O)(=O)c3ccc(C)cc3)cnc3ccccc23)cc1 -20.7%, CCc1ccc(NC(=O)CSc2nnc(-c3nonc3NC(C)=O)n2-c2ccccc2)cc1 -2.07%, Cc1cc(-c2nc3ncccc3o2)ccc1NC(=O)COc1ccc(C(C)(C)C)cc1 1.23%, Cc1ccc(S(=O)(=O)OCC(=O)Nc2ccc(C(=O)O)c(O)c2)cc1 12.6%, Cc1c(CCNC(=O)c2ccc(C(F)(F)F)cc2)sc2nc(-c3ccc(F)cc3)nn12 7.46%, COc1ccc(-c2cc(C)no2)cc1S(=O)(=O)Nc1cccc(C(F)(F)F)c1 -0.409%, CCOc1ccc(NC(=O)Cn2cnc3nc4c(cc3c2=O)CCCC4)cc1 1.35%, Fc1ccc(-n2ncc3c(Nc4ccc(Oc5ccc(Cl)cc5)cc4)ncnc32)cc1 2.02%, COc1ccc(-c2[nH]c(-c3ccc(F)cc3)nc2SCC(=O)Nc2ccc(OC)c(OC)c2)cc1 -2.57%, COc1ccc2c(c1)c(N1CCCC1=O)c(C(=O)Nc1ccc(Cl)cc1C)n2C 27.5%, CNC(=O)c1ccc(NC(=O)c2nsc3ccccc23)cc1 -0.74%, Cc1ccc(-c2csc(=Nc3ccccc3)n2CCCO)cc1 4.39%, CCCCNC(=O)c1ccc(-c2nc(CS(=O)(=O)c3ccc(C)cc3)c(C)o2)cc1 0.314%, Cc1ccc(N2CC(c3nnc(Cc4ccc(F)cc4Cl)o3)CC2=O)cc1 (centres undefined) -3.99%, Cc1ccc(-n2c(SCc3nc(-c4ccccc4C)no3)nnc2-c2ccncc2)cc1C -21.5%, CC(=O)N(C)C1(c2ccccc2)CCN(CCC[C@]2(c3ccc(Cl)c(Cl)c3)CCCN(C(=O)c3ccccc3)C2)CC1 -13%, CCc1ccc(NC(=O)CCS(=O)(=O)c2ccc3c(c2)oc(=O)n3C)cc1 0.347%, CCOC(=O)c1c(-c2ccc(C)cc2)csc1NC(=O)c1ccc(C(C)(C)C)cc1 6.45%, COC(=O)c1ccc(OC)c(Cn2c(=O)n(-c3cccc(Cl)c3)c(=O)c3c2c2cc(C)ccc2n3C)c1 2.51%, COc1ccc(CCNC(=O)CCCn2c(=O)c3ccccc3n(CC(=O)Nc3c(C)cc(C)cc3C)c2=O)cc1OC 6.74%, Cc1ccc(N2CCN(C(=O)CCc3c(C)nc4ncnn4c3C)CC2)c(C)c1 -2.24%, Cc1ccc(C)c(CN2C(=O)c3ccccc3Sc3ccc(C(=O)NC4CCCC4)cc32)c1 10.3%, CC(C)(C)C(=O)OCc1cc(=O)n2nc(C3CCCCC3)sc2n1 4.46%, COc1ccc(-c2nc(CN3CCC(C(=O)NCCN(CC(C)C)CC(C)C)CC3)c(C)o2)cc1OC 3.13%, COc1cccc2cc(-c3nc(Cl)c4c5c(sc4n3)CC(C)CC5)c(=O)oc12 (centres undefined) -2.83%, CCc1ccc(NC(=O)Cn2c(=O)n(Cc3ccccc3)c(=O)c3oc4ccccc4c32)cc1 5.31%, COc1ccc(NC(=O)CSc2nc3c(c(=O)[nH]2)CN(Cc2ccccc2)CC3)cc1Cl 1.68%, Cc1ncc(CO)c2c1Oc1nc(-c3ccccc3F)nc(SCC(=O)N3CCCCC3)c1C2 2.33%, CCOc1cc(C(=O)Nc2c(NC)c3ccccc3oc2=O)cc(OCC)c1OCC -12.9%, CCc1ccc(NC(=O)c2cnn(-c3c(C)cccc3C)c2C2CCNCC2)cc1 -8%, Cc1ccc(S(=O)(=O)c2cn(C)c3cc(N4CCCC4)c(F)cc3c2=O)c(C)c1 -1.11%, Cc1oc(-c2ccc(Cl)cc2)nc1CSc1nnc(C)n2c1cc1sccc12 5.2%, Cc1ccc(CCNc2nc3ccccc3c3nc(-c4ccccc4)nn23)cc1 0.955%, CCCNC(=O)C1CCN(c2cc(C)nc3c(-c4ccc(OC)c(OC)c4)c(C)nn23)CC1 -15.1%, CCOc1ccc(N2CC(c3nc4ccccc4n3CCC3CCCCC3)CC2=O)cc1 (centres undefined) 3.59%, COc1ccc(CN2C(=O)N(c3ccc(F)cc3)C(=O)C2CC(=O)Nc2ccccc2)cc1 (centres undefined) -0.226%, CCn1c(=O)cc(OCC(=O)NCc2ccc(F)cc2Cl)c2ccccc21 -0.91%, CCOC(=O)c1ccc(N2C(=O)c3[nH]nc(-c4ccc(OC)cc4)c3C2c2ccc(C)cc2)cc1 (centres undefined) -17.3%, CCOCCCNC(=O)c1c(NC(=O)c2cc(=O)c3cc(C)c(C)cc3o2)sc2c1CCC2 -5.88%, COc1ccc2sc(N(Cc3cccnc3)C(=O)c3ccco3)nc2c1 2.75%, CCc1cccc(C)c1NC(=O)Nc1csc2c1CCCC2 13%, O=C1CN(C(=O)c2ccccc2)C(c2ccc(F)cc2)c2cc(Br)ccc2N1 (centres undefined) 3.09%, Cc1cccc(CS(=O)(=O)CC2Nc3ccc(C(=O)NCc4ccccc4Cl)cc3NC2=O)c1 (centres undefined) 2.63%, O=C(NCCc1c[nH]c2ccccc12)Nc1ccccc1C(F)(F)F -2.41%, COc1cc(C(=O)Nc2ccc(OCc3cc(=O)n4ccc(C)cc4n3)cc2)cc(OC)c1OC 20.3%, CCCn1c2ccccc2c2cnn(CC(=O)N(CCCOC(C)C)Cc3ccco3)c(=O)c21 0.821%, COc1ccc(N2CCN(C(CNS(=O)(=O)c3c(C)cc(C)cc3C)c3ccco3)CC2)cc1 (centres undefined) -13.2%, O=C(Cn1c(=O)n(Cc2ccc(F)cc2)c(=O)c2sc3ccccc3c21)NCc1ccccc1Cl 1.06%, N#Cc1c(C(F)(F)F)cc(-c2cccs2)nc1SCC(=O)Nc1ccc(Cl)cc1 3.64%, Cc1ccn2c(Nc3ccc4c(c3)OCO4)c(-c3ccco3)nc2c1 -7.76%, CCOc1ccc(C(=O)Nc2ccc(-c3nc4cc(C(C)C)ccc4o3)cc2)cc1Cl 2.19%, CCc1cccc(NC(=O)c2nc(-c3ccncc3)no2)c1 7.11%, COc1cccc(CNC(=O)N2CCC(CN3CCC(C)CC3)CC2)c1 0.98%, CCc1cccc(C)c1NC(=O)CN1C(=O)c2c(c3ccccc3n2C)C1c1ccc(OC)cc1 (centres undefined) -1.73%, Clc1ccc(CNc2nc3ccccc3c3nc(-c4cccnc4)nn23)cc1 5.08%, CCn1ccc2cc(S(=O)(=O)N3CCC(C(=O)NCCc4ccc(SC)cc4)CC3)ccc21 1.32%

outcome, inactive:
COc1ccccc1NC(=O)C1=C(C)Nc2ncnn2C1c1ccc[nH]1 (centres undefined), COc1ccc(CNC(=O)CN2CCSc3ccccc32)c(OC)c1, CCOc1ccc(S(=O)(=O)n2nc(C)c(S(=O)(=O)N3CCCCCC3)c2C)cc1, Cc1ccc(-n2ncc3c(NCCc4ccccc4)ncnc32)cc1, Cc1c2cnn(-c3ccccc3)c(=O)c2c(C)n1CC(=O)NCc1ccc(Cl)cc1, COc1ccc(CCNC(=O)Cn2c(C)c3cnn(-c4ccccc4)c(=O)c3c2C)cc1OC, CCn1cc2nc(SCc3cccc(C(F)(F)F)c3)n(CCc3ccccc3)c(=O)c2n1, CC1=C(C(N)=O)C(c2ccc(C(C)C)cc2)n2nc(SCc3ccccc3F)nc2N1 (centres undefined), CCN1Cc2cccc(C(=O)Nc3ccc(F)cc3)c2C1=O, CCOC(=O)c1ccc(OCC2c3cc(OC)c(OC)cc3CCN2C(=O)Cc2ccc(OC)c(OC)c2)cc1 (centres undefined), CCOC(=O)c1ccc(NC(=O)Cn2nnc(-c3ccc(C(F)(F)F)cc3)n2)cc1, COC(=O)CNC(c1ccccc1)c1cc(Br)ccc1NC(=O)c1cc(OC)c(OC)c(OC)c1 (centres undefined), CC1=C(c2ccc(Cl)cc2)S(=O)(=O)N=C1N1CCN(c2cccc(C)c2)C(C)C1 (centres undefined), Cc1cc(C)c(C#N)c(SCC(=O)Nc2ccccc2C#N)n1, Cc1ccc(-n2ncc(C(=O)N3CCc4ccccc4C3)c2C2CCN(C(=O)OC(C)(C)C)CC2)cc1C, CCn1cc(C(=O)NCCc2ccc(OC)c(OC)c2)c(=O)c2cc(S(=O)(=O)N3CCc4ccccc4C3)ccc21, COc1cccc(CNC(=O)CSc2ncc(S(=O)(=O)c3ccc(C)c(Cl)c3)c(=O)[nH]2)c1, CCS(=O)(=O)c1ncc(Cl)c(C(=O)N(Cc2ccccc2)Cc2ccco2)n1, COc1ccccc1-c1noc(-c2ccc(NCCc3ccccc3)c([N+](=O)[O-])c2)n1, COC(=O)c1ccccc1NC(=O)CN1C(=O)COc2ccccc21, Cc1ccc(C)c(NC(=O)CSc2nncn3c2cc2sccc23)c1, COc1ccc(-c2noc(-c3ccc(NC4CCCCC4)c([N+](=O)[O-])c3)n2)cc1OC, COC(=O)c1cc(NC(=O)Cn2ncc3c2-c2ccccc2OC3)cc(C(=O)OC)c1, N#Cc1ccccc1CSc1nnc(-c2ccccc2)o1, COc1cc(Nc2ncnc3onc(-c4ccc(Cl)cc4)c23)cc(OC)c1, Cc1ccc(-n2c(=O)c3c(C)c(C)sc3n(CC(=O)c3ccc(Cl)cc3)c2=O)cc1C, COc1ccc(C2=NN(CC(=O)NCc3ccccc3Cl)C(=O)CC2)cc1, Fc1cccc(NCc2cccn2-c2nnc(N3CCOCC3)s2)c1, Cc1ccc(CCNC(=O)c2c(C)oc3ncnc(N4CCOCC4)c23)cc1
